According to PubChem BioAssay AID493208 (National Center for Advancing Translational Sciences (NCATS), 2011):
The whole screen tested about 44,000 compounds, of which about 340 (0.77%) were called active. Roughly 5% stayed inconclusive and do not appear here. Calls follow the shape of the dose curve; as a rule, active = well fitted inhibition curve with a large enough effect; inconclusive = small, poorly fitted or top-dose-only effect; inactive = flat fitted curve, though single readings scatter. The list shows a part of the results.

Assay: Acumen qHTS Assay for Inhibitors of the mTORC1 Signaling Pathway in MEF (Tsc2-/-, p53-/-) Cells: Sytravon;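 also: plate controls were DMSO for no effect and rapamycin for full effect; nearly all actives have a fitted effect of over 50% in size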
Details: phospho-rpS6 immunofluorescence/PI, 24 h; series mostly up to 38.3 µM; activity change, negative = inhibition: at the top concentration
Summary of the method: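 Immunofluorescence of rpS6 phosphorylation in Tsc2-/-, p53-/- MEFs after 24 h compound exposure, normalized to propidium iodide signal. Activity is expressed as % positive cells, thresholded with 7.5 nM rapamycin.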

Activity change, negative = inhibition, inactive:
CCc1ccc(C(=O)c2cn(CC(=O)NCc3ccc(C)cc3)c3nc(C)ccc3c2=O)cc1 5.42%
Cc1ccc(CNC(=O)Cn2c(-c3cccs3)cc3cc(Cl)ccc32)cc1 -5.21%
O=C(Nc1nc2c(F)cccc2s1)c1ccc2c(c1)OCCO2 -1.78%
CCOC(=O)CCNC(=O)N1CCN(S(=O)(=O)c2ccc3c(ccn3C)c2)CC1 -16.7%
CCc1nn(CC(=O)NCCCc2ccccc2)c(=O)c2cc3cc(F)ccc3n12 -1.74%
Cc1ccc(N2C(=O)C(CC(=O)Nc3ccc(F)cc3)N(Cc3ccc4c(c3)OCO4)C2=O)cc1 (stereo not given) 0.978%
Cc1ccc(CNC(=O)c2ccc3c(c2)NC(=O)C(CS(=O)(=O)Cc2cccc(F)c2)N3)cc1 (stereo not given) 2.87%
CC(=O)c1ccc(NC(=O)c2cc3c(=O)oc4ccc(C)cc4c3s2)cc1 -0.0657%
O=C(CSCn1nnc2c(=O)[nH]c(Cc3ccc(F)cc3)nc21)Nc1ccccc1 7.41%
Cc1cccc(N2C(=O)C(CC(=O)Nc3cccc(F)c3)N(CCc3ccncc3)C2=O)c1 (stereo not given) -2.25%
Cc1ccc(C(=O)Nc2ccc(S(=O)(=O)N(Cc3ccccc3)c3ccccc3)cc2)cc1 -18.1%
O=S(=O)(c1ccc(Cl)cc1)c1nc(-c2ccccc2F)oc1NCc1ccccc1 -3.29%
COc1ccc(NC(=O)C2=CC(c3ccc4c(c3)OCO4)=NS(=O)(=O)N2C)cc1OC -1.76%
CCOC(=O)c1c(C)oc2ccc(N(C(C)=O)S(=O)(=O)c3c(C)cc(C)cc3C)cc12 4.18%
COC(=O)c1cc2sccc2n1Cc1ccc(F)cc1Cl -0.176%
COc1ccc(OC)c(CC2C(=O)Nc3ccc(Br)cc32)c1 (stereo not given) -8.44%
Cc1cc(N2CCN(c3cc(Cl)ccc3C)CC2)n2nc(-c3ccccc3)nc2n1 -11.5%
Cc1cc(F)ccc1S(=O)(=O)Nc1cc2c(C(=O)O)c(C)oc2c2ccccc12 -14%
N#Cc1ccc(NC(=O)C2Cc3ccccc3CN2S(=O)(=O)c2ccc(F)cc2)cc1 (stereo not given) -12.9%
CCCCNC(=O)C1CCC(Cn2c(=O)c3sccc3n(CC(=O)Nc3ccccc3)c2=O)CC1 (stereo not given) -13.1%
O=C(COc1ccc(F)cc1)Nc1ccc2nc(SCCOc3ccccc3)sc2c1 -2.7%
O=C(Nc1ccccc1C(=O)OCc1cc(=O)n2ccsc2n1)c1ccccc1Cl 2.11%
COCCn1c(=N)c(C(=O)NC2CCCC2)cc2c(=O)n3cc(C)ccc3nc21 3.28%
CCN(CC)CCNC(=O)c1cn(CC)c2ccc(S(=O)(=O)N3CCc4ccccc4C3)cc2c1=O -1.46%
CCC(=O)N1CCc2cc(Br)cc(S(=O)(=O)N3CCN(c4cc(C)ccc4C)CC3)c21 -12.7%
CCC(=O)N1CCc2cc(Br)cc(S(=O)(=O)CCC(=O)Nc3ccc(Cl)cc3)c21 -0.77%
Cc1cccc(C)c1NC(=O)CCC(=O)N1Cc2ccccc2Oc2ncccc21 5.57%
CCOC(=O)c1cc(-c2ccc(C)cc2)n(CCC(=O)NCCc2ccc(C)cc2)c1C 1.47%
COc1ccc(Oc2nc3c(c(=O)n(C)c(=O)n3C)n2Cc2ccc(Cl)cc2Cl)cc1 -12.4%
O=C(NC1CCN(Cc2ccccc2)CC1)c1ccc(Cn2c(=O)c3ccccc3n(Cc3cccc(F)c3)c2=O)cc1 -9.89%
O=C(Cc1ccc(NC(=O)N2CCSc3ncccc32)cc1)NCc1cccc(Cl)c1 -4.5%
Cc1cccc(C(=O)NCc2nc3ccccc3n2Cc2ccccc2Cl)c1 0.128%
CCOc1ccccc1CNC(=O)c1oc2c(c1C)-c1nn(Cc3cccc(Cl)c3)cc1CC2 -3.39%
Cc1ccc2c(=O)c(C(=O)c3ccc(Cl)cc3)cn(CC(=O)Nc3ccc4c(c3)OCCO4)c2n1 6.77%
O=C(Nc1cccc(OCc2cc(=O)n3ccccc3n2)c1)Nc1cccc(C(F)(F)F)c1 5.61%
Cc1ccc(NC(=O)C2CCCN2S(=O)(=O)c2cccc3cccnc23)c(C)c1 (stereo not given) -3.82%
COc1ccc(Cl)cc1C(=O)NCCS(=O)(=O)N1CCN(c2ccccc2OC)CC1 -19.6%
COc1cccc(NC(=O)Cn2c(=O)n(Cc3ccc(C(=O)NCc4ccc(C)cc4)cc3)c(=O)c3ccccc32)c1 0.327%
CCOc1ccc(Cn2c(CNS(=O)(=O)c3ccc(C(C)(C)C)cc3)nc3cccnc32)cc1 0.275%
CCOC(=O)c1c(C)n(-c2ccccc2)c2ccc(OC(=O)c3c(F)cccc3F)cc12 4.91%
COc1ccc(CCNC(=O)C2c3ccccc3C(=O)N2Cc2ccccc2)cc1OC (stereo not given) 12.5%
CCOc1ccc(CNC(=O)C2=Cc3cccc(OC)c3OC2)cc1 -0.108%
Cc1ccccc1OCC(=O)Nc1ccc2nc(SCC(=O)N3CCOCC3)sc2c1 -12.5%
CCOc1ccc(NC(=O)CCNS(=O)(=O)c2cccs2)cc1 0.324%
Cc1ccc(-c2nn(CCC(N)=O)c(=O)c3ccccc23)cc1 -2.05%
COc1c(C)cc(NS(=O)(=O)c2ccc3c(c2)OCCO3)cc1C -12.1%
COc1ccc2c(C)c(CCC(=O)NCc3ccccc3Cl)c(=O)oc2c1C -2.36%
Cc1cc(Nc2ccccc2O)nc(C)n1 0%
Cc1ccc(C)c(S(=O)(=O)n2nc(C)c(S(=O)(=O)N3CCCCCC3)c2C)c1 -6.13%
Cc1cccc(C)c1-n1ncc(C(=O)NCCN2CCN(C)CC2)c1C1CCN(C(=O)OC(C)(C)C)CC1 -9.95%
CCOc1ccc(C(=O)NCc2nc(-c3ccc(Cl)cc3)no2)cc1OCC -5.79%
CCOC(=O)c1cnc2ccc(OC)cc2c1Nc1cccc(C(C)=O)c1 3.68%
Cc1cccc(NC(=O)C2CCN(S(=O)(=O)c3c(C)noc3/C=C/c3ccco3)CC2)c1 2.87%
CCN(Cc1ccccc1)S(=O)(=O)c1ccc(F)c(C(=O)Nc2cc(C)ccc2OC)c1 0%
Fc1ccc(CNc2nc3c(-c4ccc(F)cc4)nnn3c3ccccc23)cc1 -3.09%
COc1cc(C(=O)NCc2ccc3c(c2)CCN3C(=O)c2ccncc2)cc(OC)c1OC 4.46%
Cc1ccc(NC(=O)NCCc2c(C)nn(C)c2C)c(Cl)c1 0%
CCCCSc1ncnc2c1sc1nc(N3CCOCC3)c3c(c12)CCCC3 6.37%
COc1cccc(/C=C/c2nc(C#N)c(N(C)Cc3ccccc3)o2)c1 -10.8%
COc1ccc(-c2noc(CSCC(=O)Nc3ccc(C)cc3Br)n2)cc1OC 0.264%
